We go through 14 molecules from patent US20240327497A1.

Numbering of substitutions follows the chain as printed. Numbers in names are those of the source. Some entries of the source have several records that differ or are many. This is not the full list of results. An entry can have further records. For part of these data: Values given together appear to be repeats (runs, samples, wells or individuals). For part of these data: Values given together seem to repeat one measurement; one of them may be the mean.

The target in experiment [1] is canine FcRn (FcRn large subunit with canine beta-2-microglobulin) (canine). Nature of the experiment: SPR pH 5.5, SASA-Fc captured on BSA, FcRn 400 nM.
Experiment [2] has the same target. The experiment is described as follows: SPR pH 5.5, SASA-Fc captured on BSA, FcRn 200 nM.

B1: canine IgGB Fc (CH2-CH3) T250A with N-terminal SASA tag (Fc fusion, part only; not given: SASA tag, not shown: another chain or arm of the molecule; small tags and cut ends)
Fc: APEMLGGPSVFIFPPKPKDALLIARTPEVTCVVVDLDPEDPEVQISWFVDGKQMQTAKTQPREEQFNGTYRVVSVLPIGHQDWLKGKQFTCKVNNKALPSPIERTISKARGQAHQPSVYVLPPSREELSKNTVSLTCLIKDFFPPDIDVEWQSNGQQEPESKYRTTPPQLDEDGSYFLYSKLSVDKSRWQRGDTFICAVMHEALHNHYTQESLSHSPGK
B1: in experiment [1], the koff is 6.24 s⁻¹ and 1.27 s⁻¹ [lines of one column]; the kon was 1.9e+07 M⁻¹ s⁻¹ and 3.9e+06 M⁻¹ s⁻¹ [lines of one column].

B2: canine IgGB Fc (CH2-CH3) P307A with N-terminal SASA tag (Fc fusion, part only; not given: SASA tag, not shown: another chain or arm of the molecule; small tags and cut ends)
Fc: B1 Fc with A20T, P77A
Take B2: in experiment [1], the kon is 2.9e+08 M⁻¹ s⁻¹ and 3.7e+06 M⁻¹ s⁻¹ [lines of one column].

B3: canine IgGB Fc (CH2-CH3) T256A with N-terminal SASA tag (Fc fusion, part only; not given: SASA tag, not shown: another chain or arm of the molecule; small tags and cut ends)
Fc: B1 Fc with A20T, T26A
On to B3, for which the kon in experiment [1] is 371000 M⁻¹ s⁻¹ and 2.4e+08 M⁻¹ s⁻¹ [lines of one column].

B4: canine IgGB Fc (CH2-CH3) N434W with N-terminal SASA tag (Fc fusion, part only; not given: SASA tag, not shown: another chain or arm of the molecule; small tags and cut ends)
Fc: B1 Fc with A20T, N206W
B4: in experiment [2], the dissociation rate constant (koff) was 0.028 s⁻¹ and 0.318 s⁻¹ [lines of one column]; the kon was 693000 M⁻¹ s⁻¹ and 4.2e+06 M⁻¹ s⁻¹ [lines of one column].

B5: canine IgGB Fc (CH2-CH3) G309P with N-terminal SASA tag (Fc fusion, part only; not given: SASA tag, not shown: another chain or arm of the molecule; small tags and cut ends)
Fc: B1 Fc with A20T, G79P
With B5, in experiment [2], the Kd was 635, 434, 637, 718 nM [lines of one column]; the koff was 0.239, 0.242, 0.132, 0.145 s⁻¹ [lines of one column]; the on-rate (kon) is 377000, 558000, 207000, 202000 M⁻¹ s⁻¹ [lines of one column].

B6: wild-type canine IgGB Fc (CH2-CH3) with N-terminal SASA tag (Fc fusion, part only; not given: SASA tag, not shown: another chain or arm of the molecule; small tags and cut ends)
Fc: B1 Fc with A20T
As for B6, in experiment [1], the dissociation constant Kd is 321 nM, 592 nM, 418 nM, 534 nM, 488 nM, 514 nM, 606 nM, 489 nM, 616 nM, 614 nM, 465 nM, 1.13 µM [lines of one column]; the WT KD Avg/Variant KD is 1.76, 0.96, 1.35, 1.06, 1.16, 1.1, 0.93, 0.92, 1.22, 0.5 [lines of one column]; the koff was 1.16, 0.375, 0.185, 0.314, 0.188, 0.201, 0.16, 0.152, 0.166, 0.479, 0.135, 0.196 s⁻¹ [lines of one column]; the kon was 3.6e+06 M⁻¹ s⁻¹, 632000 M⁻¹ s⁻¹, 442000 M⁻¹ s⁻¹, 587000 M⁻¹ s⁻¹, 386000 M⁻¹ s⁻¹, 391000 M⁻¹ s⁻¹, 265000 M⁻¹ s⁻¹, 310000 M⁻¹ s⁻¹, 269000 M⁻¹ s⁻¹, 780000 M⁻¹ s⁻¹, 290000 M⁻¹ s⁻¹, 173000 M⁻¹ s⁻¹ [lines of one column].

B7: canine IgGB Fc (CH2-CH3) A254S with N-terminal SASA tag (Fc fusion, part only; not given: SASA tag, not shown: another chain or arm of the molecule; small tags and cut ends)
Fc: B1 Fc with A20T, A24S
In the case of B7, in experiment [1], the koff is 2.69 s⁻¹ and 0.758 s⁻¹ [lines of one column]; the kon is 7.9e+06 M⁻¹ s⁻¹ and 2.4e+06 M⁻¹ s⁻¹ [lines of one column].

B8: canine IgGB Fc (CH2-CH3) M428A with N-terminal SASA tag (Fc fusion, part only; not given: SASA tag, not shown: another chain or arm of the molecule; small tags and cut ends)
Fc: B1 Fc with A20T, M200A
Consider B8, for which the koff in experiment [1] was 0.169 s⁻¹ and 0.532 s⁻¹ [lines of one column].

B9: canine IgGB Fc (CH2-CH3) Y436A with N-terminal SASA tag (Fc fusion, part only; not given: SASA tag, not shown: another chain or arm of the molecule; small tags and cut ends)
Fc: B1 Fc with A20T, Y208A
As to B9, the kon in experiment [1] was 1e+06 M⁻¹ s⁻¹ and 244000 M⁻¹ s⁻¹ [lines of one column].

B10: canine IgGB Fc (CH2-CH3) K315A with N-terminal SASA tag (Fc fusion, part only; not given: SASA tag, not shown: another chain or arm of the molecule; small tags and cut ends)
Fc: B1 Fc with A20T, K85A
With B10, in experiment [1], the kon is 4.1e+07 M⁻¹ s⁻¹ and 245000 M⁻¹ s⁻¹ [lines of one column].

B11: canine IgGB Fc (CH2-CH3) H433A with N-terminal SASA tag (Fc fusion, part only; not given: SASA tag, not shown: another chain or arm of the molecule; small tags and cut ends)
Fc: B1 Fc with A20T, H205A
For the molecule B11, the association rate constant (kon) in experiment [1] was 862000 M⁻¹ s⁻¹ and 278000 M⁻¹ s⁻¹ [lines of one column].

B12: canine IgGB Fc (CH2-CH3) Q285A with N-terminal SASA tag (Fc fusion, part only; not given: SASA tag, not shown: another chain or arm of the molecule; small tags and cut ends)
Fc: B1 Fc with A20T, Q55A
Consider B12, for which the kon in experiment [1] is 328000 M⁻¹ s⁻¹ and 1.4e+08 M⁻¹ s⁻¹ [lines of one column].

B13: canine IgGB Fc (CH2-CH3) L252A with N-terminal SASA tag (Fc fusion, part only; not given: SASA tag, not shown: another chain or arm of the molecule; small tags and cut ends)
Fc: B1 Fc with A20T, L22A
Take B13: in experiment [1], the koff is 0.0969 s⁻¹ and 0.567 s⁻¹ [lines of one column]; the kon is 332000 M⁻¹ s⁻¹ and 2.4e+06 M⁻¹ s⁻¹ [lines of one column].

B14: canine IgGB Fc (CH2-CH3) G309A with N-terminal SASA tag (Fc fusion, part only; not given: SASA tag, not shown: another chain or arm of the molecule; small tags and cut ends)
Fc: B1 Fc with A20T, G79A
For the molecule B14, in experiment [1], the koff is 0.348 s⁻¹ and 0.0719 s⁻¹ [lines of one column]; the kon is 1.4e+06 M⁻¹ s⁻¹ and 244000 M⁻¹ s⁻¹ [lines of one column].

For orientation: koff means the first-order rate constant of dissociation. High values mean fast dissociation, low ones slow dissociation. The kon is the second-order rate constant of association. A low value points to slow association. One may read the Kd as the concentration at which binding is half-saturated. Low readings indicate higher affinity, high ones lower affinity.
